Results on one molecule are retold here after patent publication US20240382610A1 (priority 2021, published 2024).

Type in all cases: cell-based, human
Assay [1] concerns CD14+ monocytes with DLD-1 transduced to overexpress nectin-4.
The subject of assay [2] is DCs with DLD-1 transduced to overexpress nectin-4.
Assay [3] deals with CD3+ T cells with DLD-1 tumor cells overexpressing nectin-4.
The test system of assay [4] is DCs with nectin-4 negative tumor cells (DLD-1 parental).
Assay [5] relates to DLD-1 nectin-4 tumor cells.
Assay [6] deals with CD56+CD3- NK cells with DLD-1 tumor cells overexpressing nectin-4.

B1: TNT169a: "The antibody conjugates tested were TNT264a, TNT265a, TNT266a, TNT267a, and TNT169a"; antibody not stated here (conjugate)
heavy: EVQLVESGGGLVQPGGSLRLSCAASGFTFSSYNMNWVRQAPGKGLEWVSYISSSSSTIYYADSVKGRFTISRDNAKNSLSLQMNSLRDEDTAVYYCARAYYYGMDVWGQGTTVTVSSASTKGPSVFPLAPSSKSTSGGTAALGCLVKDYFPEPVTVSWNSGALTSGVHTFPAVLQSSGLYSLSSVVTVPSSSLGTQTYICNVNHKPSNTKVDKKV[letters of human IgG1 Fc and a few adjoining residues left out]
light: DIQMTQSPSSVSASVGDRVTITCRASQGISGWLAWYQQKPGKAPKFLIYAASTLQSGVPSRFSGSGSGTDFTLTISSLQPEDFATYYCQQANSFPPTFGGGTKVEIKRTVAAPSVFIFPPSDEQLKSGTASVVCLLNNFYPREAKVQWKVDNALQSGNSQESVTEQDSKDSTYSLSSTLTLSKADYEKHKVYACEVTHQGLSSPVTKSFNRGEC
As to B1, in assay [1], the “CD86 on human monocytes” value is “robust induction of CD86”. The “CD40 on human DCs” value in assay [2] is recorded as “robust induction of CD40”. Moreover, the “CD69 expression on T cells” value in assay [3] is on record as “with the exception of TNT169a”. Moreover, the “CD40 on human DCs” value in assay [4] was “limited to no induction of CD40”. Also, the “phagocytosis of DLD-1 nectin-4 tumor cells by macrophages” value in assay [5] is “robust phagocytosis”. Further, in assay [6], the “CD69 expression on NK cells” value is “except TNT169a” and the “IRF7 expression by NK cells” value is recorded as “moderately lesser activation”.
